Laboratory results: the RNAGym collection of RNA variant scans (doi:10.1093/nar/gkz1192)
Read counts are not given, so values of variants with three or more changes are uncertain.

B1: CPEB3 Ribozyme (parent)
chain: UAACAGGGGGCCACAGCAGAAGCGUUCACGUCGCAGCCCCUGUCAGAUUCUGGUGAAUCUGCGAAUUCUGCUGUAUAUCUC

Variants of: B1
Test: self-cleavage, relative activity (ratio to wild type); higher = more cleavage; in vitro, sequencing
Outline: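 Relative activity compares each variant's cleaved/total read fraction with that of the unmutated ribozyme. To get these fractions, barcoded CPEB3 ribozyme libraries from rounds of error-prone PCR were transcribed with T7 RNA polymerase for 5 hours at 37°C and then given 15 min of DNase I treatment before EDTA was added. The RNAs were reverse transcribed with template switching and sequenced on Illumina, and DNA sequencing linked barcodes to variants. A minimum of 5 reads applied, and three batches were averaged.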
For U25C U43C G53C A65G, the self-cleavage was 0.5. U25C U43C U48C U80A showed a self-cleavage of 0.11. Variant U25C U43C U80A has a self-cleavage of 0.24. Work on U25C U43G U66C U72A U80C yielded a self-cleavage of 0.24. U25C U48C A56U C59G U74C gave a self-cleavage of 0.09. In the case of U25C U48C A64G, the self-cleavage is reported as 0.26. Work on U25C U48C G70A yielded a self-cleavage of 0.37. U25C U48C U54C showed a self-cleavage of 0.1. Variant U25C U48C U80G has a self-cleavage of 0.27. U25C U49A C62U U74A gave a self-cleavage of 0.09. Work on U25C U49C A75G yielded a self-cleavage of 0.15. Variant U25C U49C C50A has a self-cleavage of 0.23. In the case of U25C U49C U58C U60A A75C, the self-cleavage is reported as 0.38. For U25C U49C U60A U80C, the self-cleavage was 0.07. Work on U25C U51A A64G U74C yielded a self-cleavage of 0.2. With U25C U51A U54C the self-cleavage was 0.17. U25C U51A U78A gave a self-cleavage of 0.14. U25C U51C A65G U67A U72C showed a self-cleavage of 0.05. U25C U51C U66C U69A gave a self-cleavage of 0.16. Work on U25C U51C U78C yielded a self-cleavage of 0.3. In the case of U25C U54A A57C U58A U60A U72G, the self-cleavage is reported as 0.06. With U25C U54A U74C the self-cleavage was 0.23. With U25C U58C A77U the self-cleavage was 0.11. Variant U25C U58G G61A A64G U74C has a self-cleavage of 0.16. U25C U60A A77U showed a self-cleavage of 0.11. Variant U25C U66C U72G has a self-cleavage of 0.05. In the case of U25C U67C A77U, the self-cleavage is reported as 0.07. U25C U67G A75G gave a self-cleavage of 0.07. Variant U25C U69C C71U has a self-cleavage of 0.11. U25C U69C U72C U80C gave a self-cleavage of 0.08. With U25C U76C U80C the self-cleavage was 0.32. Work on U25G A28U U31C A45G U48A U76C U78C yielded a self-cleavage of 0.13. Work on U25G C29A A35U C79G yielded a self-cleavage of 0.09. Variant U25G C29U U48A U51C has a self-cleavage of 0.04. Variant U25G C34G U58A has a self-cleavage of 0.22. For U25G C37U U67C, the self-cleavage was 0.08. In the case of U25G C62G U69A, the self-cleavage is reported as 0.19. In the case of U25G G42A U48C, the self-cleavage is reported as 0.17. In the case of U25G U26C A35G U48A C62A, the self-cleavage is reported as 0.07. Variant U25G U41A U54C A65G U78C has a self-cleavage of 0.03. Variant U25G U43C A45G A47U U58A has a self-cleavage of 0.16. Variant U25G U49C U72C U78C has a self-cleavage of 0.21. U25G U51C C68U U78C gave a self-cleavage of 0.33. Variant U26A A28C U78C has a self-cleavage of 0.23. Work on U26A A28G A45G U66C U80A yielded a self-cleavage of 0.09. For U26A A28G A47G U49A G53U G61C G70U, the self-cleavage was 0.09. For U26A A28G A56G U69A, the self-cleavage was 0.15. Work on U26A A28G A57U A64G yielded a self-cleavage of 0.13. Work on U26A A28G C39U U43G U54C A57U yielded a self-cleavage of 0.05. Variant U26A A28G C40A U74G has a self-cleavage of 0.22. U26A A28G U54C A56U A64G showed a self-cleavage of 0.09. For U26A A28U A64G U80C, the self-cleavage was 0.61. U26A A35G A45G G70A gave a self-cleavage of 0.86. U26A A35G G42A gave a self-cleavage of 0.17. For U26A A35G U41C A56U U66C U78C, the self-cleavage was 0.09. Work on U26A A35G U51A U67A yielded a self-cleavage of 1.21. With U26A A35G U58A U69C the self-cleavage was 0.33. In the case of U26A A35U A45G A47G A77C, the self-cleavage is reported as 0.12. Variant U26A A35U U41C U76C has a self-cleavage of 0.18. With U26A A45G U48C U80C the self-cleavage was 0.27. For U26A A45G U69G, the self-cleavage was 0.26. Variant U26A A45U A57G C71U has a self-cleavage of 0.07. Variant U26A A45U U78C has a self-cleavage of 0.34. U26A A47G C71U showed a self-cleavage of 0.41. U26A A47G U60A gave a self-cleavage of 0.19. U26A A47G U66C U76C gave a self-cleavage of 0.16. U26A A57G U69C U72C gave a self-cleavage of 0.25. For U26A A64G U74A, the self-cleavage was 1.11. U26A A64G U78C showed a self-cleavage of 0.46. Variant U26A A75C A77U has a self-cleavage of 1.16. U26A A75G U80C showed a self-cleavage of 0.61. Variant U26A C27U U67C U72A has a self-cleavage of 0.13. In the case of U26A C29A U41C U49C U60A A64U U76A, the self-cleavage is reported as 0.06. Work on U26A C29G G63A yielded a self-cleavage of 0.55. With U26A C29U U41A U49A the self-cleavage was 0.05. U26A C32U A47G C68A showed a self-cleavage of 0.1. With U26A C32U A47G G55A U76C A77G the self-cleavage was 0.06. With U26A C38A A56G U66C C71A U80C the self-cleavage was 0.24. Work on U26A C38U U51A A56U U60C U80A yielded a self-cleavage of 0.12. With U26A C39A U43C U51G the self-cleavage was 0.03. U26A C40A G55U U60C U67C A75G gave a self-cleavage of 0.06. With U26A C40A U69C the self-cleavage was 0.19. Work on U26A C40G U54A yielded a self-cleavage of 0.2.
